Laboratory results reported in patent publication US20090054312A1, “SMIPs: Small molecule inhibitors of p27 depletion in cancers and other proliferative diseases” (priority 2007, published 2009).
Where two headings read alike, the source gives them in different places. Each block holds one compound with its values, some of them ahead of it. Where a SMILES comes first, the peptide text is derived from it. The star is where a group is joined. Cbz = O=C(OCc1ccccc1)*

How the values were obtained:
p27 levels in S14 cells = test: p27 immunoblotting in S14 cells; format: cell-based, human; conditions: for p27 levels in S14 cells, control compounds: proteasome and CDK inhibitors; for p27 upregulation by immunoblotting relative to DMSO: 40 μM single dose, 16 hours, normalized to tubulin, duplicate experiments
Method: S14 cells were treated with SMIPs (40 μM) for 16 hours and p27 levels were assayed by immunoblotting. The bar graph represents the average ±SD of two independent experiments normalized to tubulin.
A quantitation of duplicate immunoblotting experiments is shown.
(§1) Cytoplasmic and nuclear protein fractions were prepared and analyzed by immunoblotting with the indicated antibodies. Nucleolin and Tubulin signals served as nuclear and cytoplasmic markers. A quantification of the immunoblotting data is shown.
Next, we assessed the effect of SMIPs on p27 by immunoblotting (IB). S14 cells were incubated with a single dose of SMIPs (40 μM) and p27 levels were determined relative to the DMSO vehicle control. Tubulin reactivity was used as a reference.
In subsequent IB experiments performed in duplicate, we assessed the dose responses for the 3 selected SMIPs.
(§2) Cytoplasmic and nuclear protein fractions were prepared and p27 and SKP2 levels were measured by immunoblotting. For increased subcellular resolution, we also performed biochemical separation into nuclear and cytoplasmic fractions.

LNCaP-S14 cells = test: MTT viability assay, LNCaP-S14; format: cell-based, human; conditions: Table 4; for IC50: MTT, 72 h, read-out: IC50 (concentration of 50% growth inhibition), LNCaP-S14; for specificity for killing S14 prostate cancer cells versus IMR90: comparison of IC50 data
Method: We next explored the effects of SMIPs on cell viability. S14 and IMR90 cells were exposed to increasing concentrations of SMIPs for 72 h and scored for viability using the MTT assay. IC50 values (concentration of 50% growth inhibition) were calculated (Table 4).
We next compared IC50 values for cytotoxicity of SMIP004 in S14 compared with parental LNCaP cells. […] We are testing whether SMIP-induced cytotoxicity is due to apoptosis.

[1] = tested on: IMR90 normal human fibroblasts; test: MTT viability assay, IMR90; format: cell-based
Method: We next explored the effects of SMIPs on cell viability. […] IC50 values (concentration of 50% growth inhibition) were calculated (Table 4).

[2] = tested on: p27 levels in LNCaP-S14 cells; test: p27 immunofluorescence screening assay in LNCaP-S14 cells; conditions: for accumulation of p27, fold-induction normalized to DMSO: IF assay, 16 hours; for % positive: Table 1, compounds showing SMIP activity in the secondary screen, p27-positive cells; for % positive / Z score: cell line not given; for Z score: Table 1, standard deviations from plate mean
[3] = tested on: parental LNCaP cells (LNCaP-WT); test: cytotoxicity in parental LNCaP cells; format: cell-based; conditions: Homo sapiens
Description: We are testing whether SMIP-induced cytotoxicity is due to apoptosis.

S14 cells = test: cell cycle distribution by flow cytometry, S14; format: cell-based, human; conditions: 40 μM, 24 h and 48 h
Method: (§3) Cells treated with 40 μM of the indicated SMIPs for 24 and 48 h were analyzed by flow cytometry.
(§4) Finally, we determined the effect of SMIPs on cell cycle distribution. S14 and LNCaP cells were treated with 40 μM compound and harvested for flow cytometric measurement of DNA content after 24 h and 48 h.

LNCaP cells = test: cell cycle distribution by flow cytometry, LNCaP; format: cell-based, human; conditions: 40 μM, 24 h and 48 h
Method: as §3, §4

[4] = tested on: p27 levels in parental LNCaP cells; test: p27 immunoblotting in parental LNCaP cells; format: cell-based, human; conditions: increasing concentrations, 18 h
[5] = tested on: p27 levels in DU145 cells; test: p27 immunoblotting in DU145 cells; format: cell-based, human; conditions: increasing concentrations, 18 h
[6] = tested on: SKP2 (endogenous SKP2 and Myc-SKP2) in S14 cells; test: SKP2 immunoblotting in S14 cell fractions; format: cell-based, human; conditions: 18 h, increasing concentrations
Method: as §1, §2

[7] = tested on: nuclear p53 protein in S14 cells; test: p53 immunoblotting in S14 cells; format: cell-based, human; conditions: 18 h
Method: as §1

SKP2 mRNA = test: qRT-PCR of SKP2 mRNA in S14 cells; format: cell-based, human; conditions: normalized to b-actin
Description: (§5) All data were normalized to b-actin and are expressed as arbitrary units (AU).

p27 mRNA = test: qRT-PCR of p27 mRNA in S14 cells; format: cell-based, human; conditions: normalized to b-actin
Description: as §5

p21 mRNA = test: qRT-PCR of p21 mRNA in S14 cells; format: cell-based, human; conditions: normalized to b-actin
Description: as §5

cyclin E = test: qRT-PCR of cyclin E in S14 cells; format: cell-based, human
Description: as §5

[8] = MTT, 72 h, Table 4, read-out: IC50 (concentration of 50% growth inhibition), IMR90
[9] = SMIP concentration 40 (maximum dose)
[10] = Homo sapiens, IMR-90, MTT, 72 h, Table 4, read-out: IC50 (concentration of 50% growth inhibition), IMR90

Compound: CC[C@H](CO)Nc1nc(NCc2ccccc2)c2ncn(C(C)C)c2n1 [roscovitine, reference compound]
p27 levels in S14 cells, control compounds (p27 levels in S14 cells): upregulated p27

Compound: CC1CN(C(=O)c2cc(-c3ccc(Cl)cc3)cs2)CC(C)O1 (mixture of isomers) [SMIP002]
IC50 (LNCaP-S14 cells): 11.1 µM
IC50 [1, 8]: > 40 µM
accumulation of p27, fold-induction normalized to DMSO ([2]; SMIP concentration 1): 0.15 fold
accumulation of p27, fold-induction normalized to DMSO ([2]; SMIP concentration 5): 0.31 fold
accumulation of p27, fold-induction normalized to DMSO ([2]; SMIP concentration 10): 0.36 fold
accumulation of p27, fold-induction normalized to DMSO [2, 9]: 0.96 fold

Compound: CCCCc1ccc(NC(C)=O)c(C)c1 [SMIP004, N-(4-butyl-2-methyl-phenyl)acetamide]
p27 upregulation by immunoblotting relative to DMSO (p27 levels in S14 cells): approximately two-fold
induction of p27 in cytoplasmic and nuclear fractions (p27 levels in S14 cells; 18 h, increasing concentrations): robust, dose-dependent induction
IC50 (LNCaP-S14 cells; Homo sapiens): 1.09 µM
specificity for killing S14 prostate cancer cells versus IMR90 (LNCaP-S14 cells): highest specificity
IC50 ([1]; Homo sapiens, IMR-90, 72 h, Table 5, read-out: IC50, IMR90): > 20 µM
IC50 ([1]; Homo sapiens, IMR-90, 96 h, Table 5, read-out: IC50, IMR90): > 20 µM
IC50 [1, 10]: > 20 µM
IC50 ([3]; 72 h): 40 µM
IC50 ([3]; 96 h): 2.4 µM
effect on cell cycle distribution (S14 cells): induced a cell cycle arrest in G1
effect on cell cycle distribution (LNCaP cells): induced a cell cycle arrest in G1
p27 accumulation in parental LNCaP cells [4]: led to p27 accumulation
p27 accumulation in DU145 cells [5]: active
SKP2 and Myc-SKP2 protein level [6]: downregulated
nuclear p53 protein level [7]: not induced
SKP2 mRNA (SKP2 mRNA): down-regulated
p27 mRNA (p27 mRNA): upregulated
p21 mRNA (p21 mRNA): upregulated
cyclin E (cyclin E): suppressed
effective concentrations in primary screen and follow-up assays [2]: 5 to 40 µM
accumulation of p27, fold-induction normalized to DMSO ([2]; SMIP concentration 1): 0.49 fold
accumulation of p27, fold-induction normalized to DMSO ([2]; SMIP concentration 5): 0.51 fold
accumulation of p27, fold-induction normalized to DMSO ([2]; SMIP concentration 10): 1.45 fold
accumulation of p27, fold-induction normalized to DMSO ([2]; SMIP concentration 20): 3.99 fold
accumulation of p27, fold-induction normalized to DMSO [2, 9]: five-fold
accumulation of p27, fold-induction normalized to DMSO ([2]; SMIP concentration 40 (maximum dose), listed as 004): 5.16 fold
% positive [2]: 51.08%
Z score [2]: 33.7296

Compound: O=C(OCn1ncc(Cl)c(Cl)c1=O)c1cccc(C(F)(F)F)c1 [SMIP005]
specificity for killing S14 prostate cancer cells versus IMR90 (LNCaP-S14 cells): good specificity
IC50 [1, 8]: 17.4 µM
accumulation of p27, fold-induction normalized to DMSO ([2]; SMIP concentration 1): 0.02 fold
accumulation of p27, fold-induction normalized to DMSO ([2]; SMIP concentration 5): 1.76 fold
accumulation of p27, fold-induction normalized to DMSO ([2]; SMIP concentration 10): 3.23 fold
accumulation of p27, fold-induction normalized to DMSO ([2]; SMIP concentration 20): 3.93 fold
accumulation of p27, fold-induction normalized to DMSO [2, 9]: 7.26 fold

IC50 (LNCaP-S14 cells): > 40 µM
Compound: CS(=O)(=O)c1ccc(C=CC(=O)Nc2cccc(C(F)(F)F)c2)cc1 [SMIP009]
IC50 [1, 8]: > 40 µM

Compound: CC(C)C[C@@H](C=O)NC(=O)[C@H](CC(C)C)NC(=O)[C@H](CC(C)C)NC(=O)OCc1ccccc1 [MG132, reference compound] (Cbz-Leu-Leu-Leu-aldehyde)
p27 levels in S14 cells, control compounds (p27 levels in S14 cells): restored
primary screen outcome ([2]; primary screen, 17-80 μM, duplicate): re-isolated

IC50 (LNCaP-S14 cells): 6.63 µM
Compound: O=C(OCn1ncc(Cl)c(Cl)c1=O)c1ccc(C(F)(F)F)cc1 [SMIP006]
p27 upregulation by immunoblotting relative to DMSO (p27 levels in S14 cells): approximately two-fold
accumulation of p27, fold-induction normalized to DMSO ([2]; SMIP concentration 1): 0.64 fold
accumulation of p27, fold-induction normalized to DMSO ([2]; SMIP concentration 5): 0.86 fold
accumulation of p27, fold-induction normalized to DMSO ([2]; SMIP concentration 10): 0.88 fold
accumulation of p27, fold-induction normalized to DMSO ([2]; SMIP concentration 20): 2.30 fold
accumulation of p27, fold-induction normalized to DMSO [2, 9]: 7.54 fold

IC50 (LNCaP-S14 cells): > 40 µM
Compound: CCOC(=O)c1cc2cccc(NC(=O)c3ccccc3OC(C)=O)c2[nH]1 [SMIP011]
IC50 [1, 8]: ~40 µM

IC50 (LNCaP-S14 cells; Homo sapiens): 3.56 µM
Compound: CS(=O)(=O)c1ccc(/C=C/C(=O)Nc2ccccn2)cc1 [SMIP010, 3-[4-(methylsulfonyl)phenyl]-N-(2-pyridinyl)-(2E)-propenamide]
p27 upregulation by immunoblotting relative to DMSO (p27 levels in S14 cells): approximately two-fold
specificity for killing S14 prostate cancer cells versus IMR90 (LNCaP-S14 cells): highest specificity
IC50 [1, 10]: > 40 µM
effect on cell cycle distribution (S14 cells): did not alter cell cycle distribution
effect on cell cycle distribution (LNCaP cells): did not alter cell cycle distribution
% positive [2]: 13.41%
Z score [2]: 6.4339

IC50 (LNCaP-S14 cells): 23.7 µM
Compound: CC(=O)Nc1ccc(S(=O)(=O)N(Cc2ccc3c(c2)CCO3)C2CC2)cc1 [SMIP017]
IC50 [1, 8]: > 40 µM

Compound: Cc1cc(Br)ccc1NC(=O)CCCc1c[nH]c2ccccc12 [SMIP019]
p27 upregulation by immunoblotting relative to DMSO (p27 levels in S14 cells): approximately two-fold
IC50 [1, 8]: ~40 µM

Compound: CC(C)(C)c1cc2cc(NC(=O)c3cccs3)ccc2[nH]1 [SMIP001, N-(2-tert-butyl-(1H)-indol-5-yl)-thiophene-2-carboxamide]
p27 upregulation by immunoblotting relative to DMSO (p27 levels in S14 cells): approximately two-fold
specificity for killing S14 prostate cancer cells versus IMR90 (LNCaP-S14 cells): highest specificity
IC50 [1, 10]: > 20 µM
effect on cell cycle distribution (S14 cells): induced a cell cycle arrest in G1
effect on cell cycle distribution (LNCaP cells): induced a cell cycle arrest in G1
accumulation of p27, fold-induction normalized to DMSO ([2]; SMIP concentration 1): 0.94 fold
accumulation of p27, fold-induction normalized to DMSO ([2]; SMIP concentration 5): 1.21 fold
accumulation of p27, fold-induction normalized to DMSO ([2]; SMIP concentration 10): 1.74 fold
accumulation of p27, fold-induction normalized to DMSO ([2]; SMIP concentration 20): 2.16 fold
accumulation of p27, fold-induction normalized to DMSO [2, 9]: 2.90 fold
% positive [2]: 13.27%
Z score [2]: 6.3312
